For 11 compounds, cell count results are on record in the supplement of paper PMC4604168 (melanoma cell lines).

The list shows a part of the results. Repeats are few or missing, and single values can be far off.
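Further: cells treated in 1,536-well plates, then fixed and DAPI-stained, with nuclei counted from automated high-throughput microscope images.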

The assay deals with A2058. Description: cell count relative to DMSO control; melanoma cells; higher = more viable cells. The following applies: library dose: standard library concentration; 72 h.
For the compound `COc1cc(Nc2ncc(F)c(Nc3ccc4c(n3)NC(=O)C(C)(C)O4)n2)cc(OC)c1OC` [Tamatinib] + Cc1ccc(NC(=O)c2cccc(N(C)C)c2)cc1NC(=O)c1ccc(O)cc1 [ZM336372] (first compound 2 µM, partner dose 10 µM), the cell count is 69.7%.
In the case of `O=c1[nH]nc(Sc2ncc([N+](=O)[O-])s2)n1-c1ccc2c(c1)OCCO2` + Cc1cn(-c2cc(NC(=O)c3ccc(C)c(Nc4nccc(-c5cccnc5)n4)c3)cc(C(F)(F)F)c2)cn1 [nilotinib] (first compound 1 µM, partner dose 1 µM) it was 109%; in that of `O=c1[nH]nc(Sc2ncc([N+](=O)[O-])s2)n1-c1ccc2c(c1)OCCO2` + O=C(O)[C@@H]1[O][Sb](=[O])([O][Sb]2(=[O])[O][C@H]([C@H](O)CO)[C@H](O)[C@H](C(=O)O)[O]2)[O][C@H]([C@H](O)CO)[C@@H]1O [stibogluconate] (first compound 1 µM, partner dose 10 µM), 79%; in that of `COc1cc(Nc2ncc(F)c(Nc3ccc4c(n3)NC(=O)C(C)(C)O4)n2)cc(OC)c1OC` [Tamatinib] + NC(=O)Nc1cc(-c2cccc(F)c2)sc1C(=O)N[C@H]1CCCNC1 [AZD7762] (first compound 2 µM, partner dose 0.1 µM), 107%.
In the case of `COc1cc(Nc2ncc(F)c(Nc3ccc4c(n3)NC(=O)C(C)(C)O4)n2)cc(OC)c1OC` [Tamatinib] + OCCn1cc(-c2cnc3nnn(Cc4ccc5ncccc5c4)c3n2)cn1 [PF04217903] (first compound 2 µM, partner dose 5 µM) it was 79.8%; in that of `O=c1[nH]nc(Sc2ncc([N+](=O)[O-])s2)n1-c1ccc2c(c1)OCCO2` + C[C@]1(O)C[C@@H](c2nc(-c3ccc4ccc(-c5ccccc5)nc4c3)c3c(N)nccn32)C1 [OSI906] (first compound 1 µM, partner dose 2 µM), 136%; in that of `O=c1[nH]nc(Sc2ncc([N+](=O)[O-])s2)n1-c1ccc2c(c1)OCCO2` + Cc1ccc(Nc2nccc(N(C)c3ccc4c(C)n(C)nc4c3)n2)cc1S(N)(=O)=O [Pazopanib] (first compound 1 µM, partner dose 2 µM), 96.7%.
In the case of `COc1cc(Nc2ncc(F)c(Nc3ccc4c(n3)NC(=O)C(C)(C)O4)n2)cc(OC)c1OC` [Tamatinib] + O=C(Nc1cccc(Cl)c1)Nc1ncc(CCNc2ncnc3ccsc23)s1 [SNS314] (first compound 2 µM, partner dose 0.004 µM) it was 54.4%.
Take `CC1(C)NC(=O)N(c2ccc([N+](=O)[O-])c(C(F)(F)F)c2)C1=O` [nilutamide] + Cc1cc(N2CCOCC2)cc2[nH]c(-c3c(NC[C@@H](O)c4cccc(Cl)c4)cc[nH]c3=O)nc12 [BMS536924] (first compound 5 µM, partner dose 1 µM): the cell count worked out at 92.2%.
The compound `O=c1[nH]nc(Sc2ncc([N+](=O)[O-])s2)n1-c1ccc2c(c1)OCCO2` + NC(=O)c1ccc(N(C(N)=O)c2c(F)cccc2F)nc1-c1ccc(F)cc1F [VX702] (first compound 1 µM, partner dose 2 µM) had a cell count of 96.5%.
In the case of `O=c1[nH]nc(Sc2ncc([N+](=O)[O-])s2)n1-c1ccc2c(c1)OCCO2` + Cc1cc([N+](=O)[O-])ccc1NS(=O)(=O)c1cc(Cl)ccc1Cl [FH535] (first compound 1 µM, partner dose 5 µM) it was 87.7%.
